Assay results as given in PubChem BioAssay AID1963576 (National Center for Advancing Translational Sciences (NCATS), 2024).
The whole screen tested about 46,000 compounds, of which about 60 (0.1%) were called active. Roughly 3% stayed inconclusive and do not appear here. Calls follow the shape of the dose curve; as a rule, active = well fitted inhibition curve with a large enough effect; inconclusive = small, poorly fitted or top-dose-only effect; inactive = no such curve, though single readings can be large or run the other way. Some of the results follow.

Test: Primary qHTS assay for Inhibitors of ovarian cancer metastasis using an organotypic tumor microenvironment (TME) model. Also: nearly all actives have a fitted effect of over 65% in size.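 As to activity change, negative = inhibition: plate controls were DMSO wells for no effect and tomatine positive control wells for full effect.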
Conditions: SKOV3ip1-GFP adhesion/invasion on 3D omental model, fluorescence; series mostly up to 45.8 µM; activity change, negative = inhibition: at the top concentration
Summary of the method: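 qHTS, 4-pt dose (0.36-46 umol/L); SKOV3ip1-GFP, 1,200 cells/well, no FBS; primary omental fibroblast/mesothelial co-culture 48 h pre-grown; 2 h RT + 16 h 37 C; PBS wash, 4% PFA; GFP count 488/509 nm.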

Activity change, negative = inhibition, inactive:
Cc1cc(C)n2nc(SCC(=O)Nc3ccc(O)cc3)nc2n1 29.5%
CCOc1ccc(-c2cc(C(=O)NCc3ccc(OCC)c(OC)c3)[nH]n2)cc1 -5.58%
COc1ccc(-c2ccc(NS(=O)(=O)c3ccccc3)cc2)nn1 -13.1%
CCc1cccc(CC)c1NC(=O)CCS(=O)(=O)c1ccc(Br)cc1 -3.53%
O=c1c2sc3ccccc3c2n(Cc2ccc(F)cc2)c(=O)n1Cc1ccccc1 -7.42%
COc1cc(-c2nc(Cn3nnc(C(=O)Nc4ccccc4C)c3C)c(C)o2)cc(OC)c1OC -11.3%
Cc1ccccc1-c1nc2c(c(SCc3cccc(Cl)c3)n1)Cc1c(CO)cnc(C)c1O2 -3.28%
COc1cc(C)ccc1OCCSc1nc2ccc(NC(=O)c3ccc4c(c3)OCO4)cc2s1 -12.3%
Clc1cccc(N2CCN(c3nc4ccccc4c4nc(-c5cccnc5)nn34)CC2)c1 11.1%
Cn1c(CNc2ccc(C(=N)N)cc2)nc2cc(C(=O)N(CCC(=O)O)c3ccccn3)ccc21 6.53% [at 23.2 µM]
COc1ccc(C)cc1NC(=O)c1ccc2c(c1)N(Cc1cccc(Cl)c1)C(=O)c1ccccc1S2=O (stereo unspecified) 4.17%
CNC1CCCN(c2c(F)cc3c(=O)c(C(=O)O)cn(C4CC4)c3c2OC)C1 (stereo unspecified) -7.53%
CCOC(=O)c1noc2ncn(CC(=O)Nc3ccc(OC)c(Cl)c3)c(=O)c12 40%
Cc1ccc(S(=O)(=O)c2nc(-c3cccs3)oc2SC(C)c2ccccc2)cc1 (stereo unspecified) -3.01%
CCOC(=O)c1ccc(NC(=O)Cc2coc3cc(C)cc(C)c23)cc1 -9.45%
Cc1cccc(Cn2nnc3c(=O)[nH]c(C4CCN(C(=O)c5ccccc5F)CC4)nc32)c1 4.04%
CCCC(=O)NCc1nc2cccnc2n1Cc1ccc(F)cc1 -7.46%
Cc1cccc(NC(=O)CSc2nc(=O)n(CCN3CCOCC3)c3c2CCC3)c1C 11.3%
COc1ccc(CNC(=O)c2cnc(N3CCCC3)nc2C)cc1 2.23%
O=C(CSc1cn(CC(=O)N2CCOCC2)c2ccccc12)Nc1ccccc1C(F)(F)F -9.28%
CCN(C(=O)CSc1nnc(C)n2c1cc1occc12)c1ccccc1 -5.64%
CCCCc1nn2c(=O)cc(COC(=O)c3ccccc3NC(=O)C3CCCCC3)nc2s1 -1.74%
COc1ccc(S(=O)(=O)NCc2cccn2Cc2cccc(C)c2)cc1OC 1.26%
CCOC(=O)c1c(-c2ccccc2)oc2ccc(NS(=O)(=O)c3ccccc3)cc12 7.05%
COc1ccc(-c2c(C)c3ccc(O)c(CN4CCN(C)CC4)c3oc2=O)cc1OC 5%
Cc1ccccc1C(=O)Nc1nc2c(s1)CC(C(C)(C)C)CC2 (stereo unspecified) -5.38%
CCOC(=O)CSc1nc2c([nH]c3ccccc32)c(=O)n1-c1ccc(OCC)cc1 0.119%
COc1ccc(CSc2nc3ccncc3n2Cc2nc(-c3ccc(OC)c(OC)c3)oc2C)cc1 2.68%
Cc1cccc2sc(N(Cc3cccnc3)C(=O)C3CCCCC3)nc12 -24.5%
CN1C(=O)C2CCCCN2c2ccc(C(=O)NCc3ccccc3Br)cc21 (stereo unspecified) -25.5%
Clc1cccc(-c2noc3ncnc(NC4CCCCC4)c23)c1 -0.79%
O=C(CSc1nc2c([nH]c3ccccc32)c(=O)n1-c1ccc(F)cc1)N1CCCCCC1 20%
COc1ccccc1CNC(=O)Nc1ccc2c(c1)N(C)C(=O)c1ccccc1S2 -15.2%
O=C(Nc1ccc(Br)cc1)c1ccc(Br)c(S(=O)(=O)NCc2ccccc2)c1 -28.7%
COc1cccc(-c2cc(C(=O)NCCc3ccc(C)cc3)[nH]n2)c1 10.3%
CC(=O)c1c(C)n(-c2cccc(C)c2)c2ccc(OC(=O)COc3ccccc3)cc12 4.42%
Cc1ccc(NS(=O)(=O)c2c(C(=O)N3CCCCCC3)c(C)n(C)c2C)cc1F 15.8%
CCOC(=O)c1c(C)c(C(=O)NCCc2ccc(OC)cc2)c(C)n1CC 8.04%
Cc1ccc(C(=O)Nc2ccc3c(c2)N(C)C(=O)c2ccccc2S3)cc1F 11.3%
CC(=O)c1ccc(NC(=O)CSc2nc(-c3ccccc3F)nc3c2c(=O)n(C)c(=O)n3C)cc1 6.84%
Cc1ccc(C(c2sc3nc(-c4ccco4)nn3c2O)N2CCCCC2)cc1 (stereo unspecified) 0.344%
Cc1ccc(N(C)S(=O)(=O)c2ccc3[nH]cc(C(=O)O)c(=O)c3c2)cc1C -8.84%
CCc1nn(CC(=O)Nc2c(C)cc(C)cc2C)c(=O)c2cc3sccc3n12 -8.16%
C=Cc1ccc(Cn2c(=O)n(-c3ccccc3C)c(=O)c3c4c(sc32)CN(C(C)=O)CC4)cc1 4.46%

outcome, inactive:
CCc1ccc(NC(=O)Cn2c(=O)n(CCCC(=O)NCc3ccccc3OC)c(=O)c3ccccc32)cc1
Cc1cc(NC(=O)CN(C)S(=O)(=O)c2ccc3c(c2)CCCC(=O)N3)ccc1Br
CCOC(=O)c1cc(-c2ccccc2)n(CCC(=O)Nc2ccc(OC)c(Cl)c2)c1C
CC(=O)N1c2ccc(S(=O)(=O)N3CCCCCC3)cc2CC1C(=O)NCc1cccc(F)c1 (stereo unspecified)
Cc1ccc(C)c(NC(=O)c2ccc(=O)n(Cc3ccc(F)cc3)c2)c1
CCOc1ccc(CC(=O)NCCS(=O)(=O)N2CCN(c3ccccc3OC)CC2)cc1
CCS(=O)(=O)N1CCc2cc(C(=O)N3CCN(c4ccccc4)CC3)ccc21
Cc1ccc(NC(=O)Cn2c(=O)n(Cc3ccc4c(c3)OCO4)c(=O)c3ccc(C(=O)NC4CCCCC4)cc32)cc1
Cc1cc([N+](=O)[O-])ccc1NC(=O)CSc1nccn1C
CCOc1ccc(NC(=O)c2cc3c(=O)n4cccc(C)c4nc3s2)cc1
COc1ccc2c(c1)c1c(c(=O)n(-c3cccc(Cl)c3)c(=O)n1C)n2C
COc1ccc(S(=O)(=O)c2cn(CC(=O)Nc3ccccc3)c3ccc(Cl)cc3c2=O)cc1
COc1cccc2cc(-c3nc(-c4cccs4)no3)c(=O)oc12
COc1cc(NC(=O)CCc2c(C)nc3c(c(C)nn3-c3ccccc3)c2C)cc(OC)c1OC
COc1ccc(Br)cc1CNC(=O)CCC(=O)N1CCSc2ccccc21
CCOc1ccc(CNC(=O)Cn2nc(C)c3sc4ccccc4c3c2=O)cc1
CCN(Cc1ccccc1)C(=O)Nc1ccc2c(c1)N(C)C(=O)c1ccccc1S2
